Measurements: the supplement of paper PMC3334620
In all, about 33,000 sequences were measured (“E-score (-0.5 to 0.5)”: median about -0.021, highest 2% from about 0.32 on). The list shows a part of the results.

molecular target: T1, Zap1 (UniProt P47043); assay: PBM E-score (8-mer binding enrichment) (E-score (-0.5 to 0.5)); higher = stronger / more preferred TF binding; most listed sequences are background and not binding sites; conditions: protein concentration: 200 nM; construct: GST-full length
T1 sequence: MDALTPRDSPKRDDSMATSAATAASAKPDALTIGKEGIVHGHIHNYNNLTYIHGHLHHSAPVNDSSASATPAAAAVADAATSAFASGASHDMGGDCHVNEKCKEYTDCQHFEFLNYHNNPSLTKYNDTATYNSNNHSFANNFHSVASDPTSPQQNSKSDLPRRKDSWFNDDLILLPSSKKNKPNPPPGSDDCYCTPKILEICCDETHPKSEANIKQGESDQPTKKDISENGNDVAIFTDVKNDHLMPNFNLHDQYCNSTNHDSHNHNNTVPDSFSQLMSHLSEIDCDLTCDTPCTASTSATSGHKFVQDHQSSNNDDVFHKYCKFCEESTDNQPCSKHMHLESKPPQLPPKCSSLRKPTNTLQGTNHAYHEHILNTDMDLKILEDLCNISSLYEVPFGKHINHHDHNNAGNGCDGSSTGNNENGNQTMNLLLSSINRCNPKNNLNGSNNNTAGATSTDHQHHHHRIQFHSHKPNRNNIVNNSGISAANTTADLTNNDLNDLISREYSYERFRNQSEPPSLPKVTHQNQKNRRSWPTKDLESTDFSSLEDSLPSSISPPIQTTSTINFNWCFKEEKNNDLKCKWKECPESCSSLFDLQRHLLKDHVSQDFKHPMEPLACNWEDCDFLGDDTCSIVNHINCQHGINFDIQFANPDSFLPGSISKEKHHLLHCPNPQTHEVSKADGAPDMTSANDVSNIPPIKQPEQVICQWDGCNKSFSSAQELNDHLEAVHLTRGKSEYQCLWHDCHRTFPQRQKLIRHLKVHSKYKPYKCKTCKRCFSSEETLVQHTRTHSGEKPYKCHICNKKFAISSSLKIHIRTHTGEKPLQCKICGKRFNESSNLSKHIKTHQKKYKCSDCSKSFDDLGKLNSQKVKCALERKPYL
Outline: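 GST-tagged yeast TFs (full-length or DNA-binding domain) were made by PURExpress in vitro transcription/translation and applied at about 100-200 nM to universal all-10-mer Agilent arrays. The arrays were made double-stranded by primer extension, on fresh or once-stripped slides. Bound protein was detected with fluorescent anti-GST, and scans were normalised with masliner. Each ungapped eight-base word, pooled with its reverse complement, received an E-score (modified Wilcoxon-Mann-Whitney statistic) from the Universal PBM Analysis Suite.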

Row | Sequence | PBM E-score
1 | GAGGAAAA | -0.0396
2 | CGATCATA | 0.0491
3 | GGACGCCC | -0.25
4 | CAGGTCAA | 0.0665
5 | TGGTGAAA | -0.052
6 | AAACACTG | 0.154
7 | AACGGTCT | 0.0201
8 | CCAGGTCG | -0.102
9 | TAAAACCA | 0.0656
10 | GCATGCAA | -0.105
11 | ATCTGCGC | -0.22
12 | ACGCGCTA | 0.0844
13 | CAGGCAAG | -0.114
14 | CGCCGCCC | -0.0572
15 | CTGCAGCA | -0.182
16 | CTTCAGTA | 0.0193
17 | GGGTCTAC | 0.183
18 | GGTCAGGA | 0.305
19 | GGATAGCA | -0.13
20 | CTTCCTAC | -0.279
21 | CTGTTAGA | -0.0791
22 | CTAACTTA | -0.0108
23 | ATAGTGTG | -0.106
24 | GAACCAGC | 0.154
25 | GCACCTGC | -0.16

Row | Sequence | PBM E-score
26 | CACGGATC | -0.183
27 | ACCTAAAT | 0.183
28 | ATCGCAGA | -0.134
29 | ACTAAGCG | -0.156
30 | GTGAGTGA | -0.147
31 | ACCCTAAC | 0.414
32 | GCCAAAGC | -0.213
33 | ATCGTTTG | 0.0376
34 | AATGATAG | -0.0146
35 | GACTACAC | -0.139
36 | AAATGGTC | 0.207
37 | TACCGACA | -0.00804
38 | ATCTCAGC | -0.0588
39 | CGCATTCC | -0.379
40 | AAAGCCAT | -0.0283
41 | CACAGGGC | -0.142
42 | CACGGCAA | -0.14
43 | AACATCAG | -0.0261
44 | TACGGAAA | 0.0818
45 | CGTGCCCA | -0.0639
46 | GCGAGCCC | -0.109
47 | AATAGTCG | -0.0275
48 | CGGTAACA | 0.253
49 | CCTAGATA | -0.0485
50 | GCCCGTGA | -0.131

Row | Sequence | PBM E-score
51 | CTGTAGGA | -0.00692
52 | AGAGCCAC | -0.0676
53 | AAGCACTT | -0.0713
54 | AAGAGGCG | -0.0798
55 | GCCTAGCC | -0.172
56 | CGTGACCA | 0.35
57 | AGCTCATA | -0.0535
58 | ACACAACT | 0.108
59 | AGCATTGA | -0.157
60 | TTCGTAAA | -0.0151
61 | AGGGAGCA | -0.368
62 | AGTGCGCG | -0.185
63 | GTGATCAA | 0.128
64 | CTAATGAG | -0.0274
65 | ATGTTACC | 0.23
66 | ATAGCACG | -0.242
67 | CCGCACGA | 0.0224
68 | CCCATGAC | 0.165
69 | AAGGTATT | 0.199
70 | AAAACGTT | 0.0662
71 | ACCGGATA | 0.0737
72 | CAATAGTC | -0.102
73 | GGCAGGCA | -0.189
74 | GTGGACTA | 0.118
75 | CCTCAAGC | -0.133

Row | Sequence | PBM E-score
76 | AAGCGGTG | -0.229
77 | GTGCGGGA | -0.306
78 | ACGCGCCT | -0.156
79 | CAAATAAA | 0.221
80 | GAAATCGC | -0.192
81 | ACGCGCAG | -0.233
82 | AACTGTTC | -0.0321
83 | CCCCCTAG | -0.343
84 | AATCCAGC | -0.108
85 | CAATTCGG | -0.0532
86 | CTGGAGAA | -0.217
87 | GATACCCC | 0.37
88 | ACTCATCT | -0.014
89 | AGCCCCAA | -0.00322
90 | CCTATGTC | 0.0145
91 | CCACACTA | 0.0596
92 | TCATGCAA | 0.118
93 | CTGAATAC | 0.12
94 | CAGAAAAG | 0.0119
95 | AAATCTCC | -0.19
96 | AAGTCGAT | -0.271
97 | CAGATAGG | -0.0378
98 | AGCGATAC | 0.00398
99 | AACTCACT | -0.173
100 | TCCCCGCA | -0.18

Row | Sequence | PBM E-score
101 | CGGCTAGC | -0.191
102 | GGCCAAAC | -0.0782
103 | AGTCTTGG | -0.117
104 | CATTGGCA | -0.0796
105 | AAGAACAT | 0.0707
106 | CAAAGTTG | -0.0875
107 | CACATCGA | -0.133
108 | AAGGGGAT | 0.142
109 | ATATTCGC | -0.0166
110 | GTCCGAGA | 0.0141
111 | ATTGGATC | -0.00311
112 | CGGGAGGC | -0.261
113 | ACTAATCC | 0.0159
114 | TGGTACAA | 0.146
115 | TATTATGA | 0.00643
116 | GCCTGCCC | -0.443
117 | AACCGCGG | 0.374
118 | CTGAGTTA | 0.0976
119 | AAGCGCCT | -0.166
120 | GAGGGCCC | -0.192
121 | CACTTTGA | -0.0149
122 | CGAATTTA | 0.112
123 | ACCCCTGC | 0.167
124 | GCAATGTA | 0.0851
125 | GCATTGGC | -0.267

Row | Sequence | PBM E-score
126 | TAGGCATA | -0.172
127 | AGAGCGAT | -0.308
128 | ATCTCAGG | -0.162
129 | AGCCAACA | -0.0528
130 | ACCAAAGC | 0.0537
131 | AGGGTGGG | 0.334
132 | ACGCGTGC | -0.035
133 | CATGTTAG | -0.0933
134 | ATGATTTG | 0.0279
135 | AGCCGGCA | -0.233
136 | GCACGTCA | -0.283
137 | CCTACAAC | 0.25
138 | GCCACACC | -0.11
139 | ATCACGTA | -0.133
140 | ATTTGTAG | 0.00204
141 | AAATTGGC | -0.0732
142 | AACGGCTG | -0.057
143 | CCATACAC | 0.159
144 | AGCGCGAG | -0.0403
145 | AAGCCACG | -0.0809
146 | CGAGATAG | -0.236
147 | CTTAAAAG | -0.00047
148 | TAATCCGA | -0.0485
149 | AAGTTAGA | 0.132
150 | ATTCGCAG | 0.021

Row | Sequence | PBM E-score
151 | ACAAGGAG | 0.0819
152 | ACAAGATG | -0.0751
153 | CCCTCCAA | 0.102
154 | AAGTGCAT | -0.11
155 | ACTATCTG | -0.0537
156 | AGGCTCAT | -0.0974
157 | ACCAGAAA | 0.158
158 | TCGAAGAA | -0.0842
159 | ACAGAAAT | 0.152
160 | CCCAGTAA | 0.192
161 | ACCTGTAA | 0.187
162 | CTTTATGC | 0.074
163 | GCGTTAAC | 0.255
164 | ACATCGAG | -0.0516
165 | TTGTAAAA | 0.147
166 | AGCGAATC | -0.083
167 | GATACTCC | -0.263
168 | GCCTAGAC | -0.255
169 | CAGTATAA | 0.197
170 | AAACAGTC | -0.124
171 | TCGTTTCA | -0.0147
172 | CGAGTCGA | 0.116
